In the supplement of paper PMC4604168 (melanoma cell lines):
The list shows a part of the results. Repeats are few or missing, and single values can be far off.
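Note: cell number obtained by counting DAPI-stained nuclei in high-throughput microscope images with image analysis software, screen run in 1,536-well plates.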

The molecules below were run on RVH-421 (assay: cell count relative to DMSO control; melanoma cells; higher = more viable cells). Settings: library dose: low library concentration; 72 h; first compound 0.4 µM.
Molecule Cn1sc(=O)n(Cc2ccccc2)c1=O + O=c1cc(-c2cccc3c2Sc2ccccc2S3)oc(N2CCOCC2)c1 [KU55933] (partner dose 1 µM) has a cell count of 126%.
For C[C@@H](N)c1ccc(C(=O)Nc2ccnc3[nH]ccc23)cc1 + COc1cc2c(Oc3ccc4[nH]c(C)cc4c3F)ncnc2cc1OCCCN1CCCC1 [cediranib] (partner dose 0.4 µM), the cell count was 73%.
With C[C@@H](N)c1ccc(C(=O)Nc2ccnc3[nH]ccc23)cc1 + COc1ccc(-c2ccc3c(N4CCOCC4)nc(N4C[C@@H](C)O[C@@H](C)C4)nc3n2)cc1CO [KU0063794] (partner dose 0.02 µM) the cell count was 83.3%.
Work on C[C@@H](N)c1ccc(C(=O)Nc2ccnc3[nH]ccc23)cc1 + COC(=O)c1sccc1S(=O)(=O)Nc1ccc(Nc2ccccc2)cc1OC [GSK0660] (partner dose 1 µM) yielded a cell count of 64%.
Molecule C[C@@H](N)c1ccc(C(=O)Nc2ccnc3[nH]ccc23)cc1 + COc1cc(Nc2ncc(F)c(Nc3ccc4c(n3)NC(=O)C(C)(C)O4)n2)cc(OC)c1OC [Tamatinib] (partner dose 0.4 µM) has a cell count of 79.3%.
Molecule Cn1sc(=O)n(Cc2ccccc2)c1=O + CCc1ccc(CCOc2ccc(CC3SC(=O)NC3=O)cc2)nc1 [pioglitazone] (partner dose 2 µM) has a cell count of 88.7%.
For Cn1sc(=O)n(Cc2ccccc2)c1=O + O=C(O)C(=O)Nc1sc2c(c1C(=O)O)CCNC2 [TCS401] (partner dose 1.66667 µM), the cell count was 114%.
CCCCCCCCCCCCCCCCCCOP(=O)([O-])OC1CC[N+](C)(C)CC1 [Perifosine] + O=S(=O)(c1ccccc1)N(CC(F)(F)F)c1ccc(C(O)(C(F)(F)F)C(F)(F)F)cc1 [T0901317] (partner dose 1.4 µM) gave a cell count of 70%.
Molecule CCCCCCCCCCCCCCCCCCOP(=O)([O-])OC1CC[N+](C)(C)CC1 [Perifosine] + N#Cc1c(O)c2c(-c3ccc(-c4ccccc4O)cc3)csc2[nH]c1=O [A769662] (partner dose 2 µM) has a cell count of 102%.
C[C@@H](N)c1ccc(C(=O)Nc2ccnc3[nH]ccc23)cc1 + C[C@@H]1CCN(C(=O)CC#N)C[C@@H]1N(C)c1ncnc2[nH]ccc12 [CP690550] (partner dose 1 µM) showed a cell count of 64.8%.
Cn1sc(=O)n(Cc2ccccc2)c1=O + Oc1nc(-c2ccc(C(F)(F)F)cc2)nc2c1CSCC2 [XAV939] (partner dose 2 µM) gave a cell count of 86.4%.
With CCCCCCCCCCCCCCCCCCOP(=O)([O-])OC1CC[N+](C)(C)CC1 [Perifosine] + CC(C)CCN1c2nc(Nc3cc(F)c(O)c(F)c3)ncc2N(C)C(=O)C1C [BID1870] (partner dose 0.2 µM) the cell count was 96.4%.
For Cn1sc(=O)n(Cc2ccccc2)c1=O + COc1cc2ncnc(Nc3ccc(Oc4ccccc4)cc3)c2cc1OC [SrcI1] (partner dose 2 µM), the cell count was 96.7%.
Cn1sc(=O)n(Cc2ccccc2)c1=O + COC(=O)c1sccc1S(=O)(=O)Nc1ccc(Nc2ccccc2)cc1OC [GSK0660] (partner dose 1 µM) gave a cell count of 95.1%.
With Cn1sc(=O)n(Cc2ccccc2)c1=O + CC1(C)NC(=O)N(c2ccc([N+](=O)[O-])c(C(F)(F)F)c2)C1=O [nilutamide] (partner dose 1 µM) the cell count was 77.8%.
Cn1sc(=O)n(Cc2ccccc2)c1=O + COc1ccc(COc2ccc(Cc3cnc(N)nc3N)cc2OC)cc1 [GW2580] (partner dose 1 µM) was tested, and the cell count was 108%.
C[C@@H](N)c1ccc(C(=O)Nc2ccnc3[nH]ccc23)cc1 + CCCCCCCCCCCC1=C(O)C(=O)C=C(O)C1=O [Embelin] (partner dose 1.2 µM) was tested, and the cell count was 79.7%.
Molecule CCCCCCCCCCCCCCCCCCOP(=O)([O-])OC1CC[N+](C)(C)CC1 [Perifosine] + O=C(O)c1ccc(-c2c[nH]c3ncc(-c4ccccc4)cc23)cc1C1CCCC1 [GSK650394] (partner dose 0.16 µM) has a cell count of 89.7%.
C[C@@H](N)c1ccc(C(=O)Nc2ccnc3[nH]ccc23)cc1 + CO[C@@H]1[C@H](N(C)C(=O)c2ccccc2)C[C@H]2O[C@]1(C)n1c3ccccc3c3c4c(c5c6ccccc6n2c5c31)C(=O)NC4 [Midostaurin] (partner dose 0.08 µM) gave a cell count of 63.9%.
Cn1sc(=O)n(Cc2ccccc2)c1=O + CN(NC(=O)CC(=O)NN(C)C(=S)c1ccccc1)C(=S)c1ccccc1 [STA4783] (partner dose 0.006 µM) was tested, and the cell count was 76.2%.
Cn1sc(=O)n(Cc2ccccc2)c1=O + Oc1cc(-c2nc(-c3ccccc3)[nH]c2-c2ccncc2)ccc1Cl [L779450] (partner dose 0.2 µM) gave a cell count of 82.8%.
In the case of CCCCCCCCCCCCCCCCCCOP(=O)([O-])OC1CC[N+](C)(C)CC1 [Perifosine] + Cc1cc([N+](=O)[O-])ccc1NS(=O)(=O)c1cc(Cl)ccc1Cl [FH535] (partner dose 1 µM), the cell count is reported as 105%.
C[C@@H](N)c1ccc(C(=O)Nc2ccnc3[nH]ccc23)cc1 + O=C(O)C(=O)Nc1sc2c(c1C(=O)O)CCNC2 [TCS401] (partner dose 1.66667 µM) was tested, and the cell count was 111%.
Molecule C[C@@H](N)c1ccc(C(=O)Nc2ccnc3[nH]ccc23)cc1 + COc1ccc(COc2ccc(Cc3cnc(N)nc3N)cc2OC)cc1 [GW2580] (partner dose 1 µM) has a cell count of 71.5%.
Work on CCCCCCCCCCCCCCCCCCOP(=O)([O-])OC1CC[N+](C)(C)CC1 [Perifosine] + OCCn1cc(-c2cnc3nnn(Cc4ccc5ncccc5c4)c3n2)cn1 [PF04217903] (partner dose 1 µM) yielded a cell count of 98.3%.
Molecule C[C@@H](N)c1ccc(C(=O)Nc2ccnc3[nH]ccc23)cc1 + CN(C)S(=O)(=O)c1ccc2c(c1)/C(=C/c1cc3c([nH]1)CCCC3)C(=O)N2 [SU6656] (partner dose 0.4 µM) has a cell count of 65.1%.
In the case of Cn1sc(=O)n(Cc2ccccc2)c1=O + Cc1cc([N+](=O)[O-])ccc1NS(=O)(=O)c1cc(Cl)ccc1Cl [FH535] (partner dose 1 µM), the cell count is reported as 82.7%.
Molecule Cn1sc(=O)n(Cc2ccccc2)c1=O + CC(C)CCN1c2nc(Nc3cc(F)c(O)c(F)c3)ncc2N(C)C(=O)C1C [BID1870] (partner dose 0.2 µM) has a cell count of 104%.
With C[C@@H](N)c1ccc(C(=O)Nc2ccnc3[nH]ccc23)cc1 + c1cc(-c2cnn3cc(-c4ccc(OCCN5CCCCC5)cc4)cnc23)ccn1 [Dorsomorphin] (partner dose 0.4 µM) the cell count was 71.9%.
CCCCCCCCCCCCCCCCCCOP(=O)([O-])OC1CC[N+](C)(C)CC1 [Perifosine] + CC(C)(C)c1cnc(CSc2cnc(NC(=O)C3CCNCC3)s2)o1 [SNS-032] (partner dose 0.01 µM) showed a cell count of 119%.
C[C@@H](N)c1ccc(C(=O)Nc2ccnc3[nH]ccc23)cc1 + O=c1cc(-c2cccc3c2Sc2ccccc2S3)oc(N2CCOCC2)c1 [KU55933] (partner dose 1 µM) gave a cell count of 103%.
Work on CCCCCCCCCCCCCCCCCCOP(=O)([O-])OC1CC[N+](C)(C)CC1 [Perifosine] + C[C@@H]1CCN(C(=O)CC#N)C[C@@H]1N(C)c1ncnc2[nH]ccc12 [CP690550] (partner dose 1 µM) yielded a cell count of 91.6%.
